Assay results as given in the RNAGym collection of RNA variant scans (doi:10.1093/nar/gkz1192).
The source gives no read counts; variants with many changes may rest on few reads.

B1: CPEB3 Ribozyme (parent)
chain: UAACAGGGGGCCACAGCAGAAGCGUUCACGUCGCAGCCCCUGUCAGAUUCUGGUGAAUCUGCGAAUUCUGCUGUAUAUCUC

Variants of: B1
Assay: self-cleavage, relative activity (ratio to wild type); higher = more cleavage; in vitro, sequencing
Procedure, shortened: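 After error-prone PCR and barcoding, CPEB3 ribozyme mutant libraries were transcribed with T7 RNA polymerase at 37°C for 5 hours, then given 15 min with DNase I before an EDTA stop, and they cleaved during both steps. Reverse transcription with template switching preceded Illumina sequencing. Relative activity divides a variant's cleaved/total read fraction by the unmutated ribozyme's. At least 5 reads were required per variant, and three batches were averaged.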

Variant | self-cleavage
UAACAGUGGGCCACAGCUGCAGCGUUCACUUCGCAGCCCCUGUCAGAUUCUGGUGGAUCUGCGAAUUCUGCUGUAUAUCUC [G7U A18U A20C G30U A56G] | 0.05
UAACAGUGGGCCACAGCAGAGGCGUUCACGCCGCAGCCCCCGUCAGAUCCUGGUGAAUCUGCGAGUUCUGCUGUAUAUCUC [G7U A21G U31C U41C U49C A65G] | 0.03
UAACAGUGGGCCACAGCAGAAGCGUUCACGUCGCGGCCCCUGUCAGAUUCUGGUGAAUCCGCGAAUUCUGCUGUAUAUCUC [G7U A35G U60C] | 0.06
UAACAGUGGGCCACAGCAGAAGCGUUAACGUCGCAGCCCCUGUCAGUCUCUGGUGAAUCUGCGAAUUCUGCUGCAUAUCUC [G7U C27A A47U U48C U74C] | 0.07
UAACAGUGGGCAACAGCAGGAGCGUUCACGUCGCAGCCCCUGUCAGAUUCUGGUGGAUCUGCGAAUUCUGCUGUACACCUC [G7U C12A A20G A56G U76C U78C] | 0.17
UAACAGUGUGCCACAGCAGAAGGGAUCACGGCGCAGCCCCCGUCAGAUUCUGGUGAAUCUGCGAAUUCUGCUGUAUAUCUC [G7U G9U C23G U25A U31G U41C] | 0.04
UAACAGUGGGCCACAGCAGUAGCGUUCACGUCGCGGCCCCUGUCAGAUUCUGGUGAAUCCGCGAGUUCUGCUGCAUAUCUC [G7U A20U A35G U60C A65G U74C] | 0.15
UAACAGUGGGCCACAGCAGAAGCGUUCACGUCGCAGCCCCUGUCAGGUUCUGGUGAAUCUGCGAAUUCUGCUGUAUAUCCC [G7U A47G U80C] | 0.21
UAACAGUGGGCCACAGCUGAGGCGUUCACGUCGCAGCCCCUGUCUGAUUCUGGUGAAUCCGCGAAUUCUGCUGUAUAUCUC [G7U A18U A21G A45U U60C] | 0.16
UAACAGUGGGCCACAGCAGAAGUGAUCACGUCGCAGCCCCUGUCAGAUUCUGGUGAAUCUGCGAAUUCUGCAGUAUAUCUC [G7U C23U U25A U72A] | 0.07
UAACAGUGGGCCACAGCAGAAGCGUUCACGUCGCUGCCCCUGUCAGAUUAUGGUGAGUCUGCGAAUUCAGCUGUAUAUCUC [G7U A35U C50A A57G U69A] | 0.05
UAACAGUGGGCCUCAGCAGAAGCGUUCACGUCGCAGCCCCUGUCAGAUUCUGGUGAAUCUGCGAGUUCUGCUGUAUAUCUC [G7U A13U A65G] | 0.17
UAACAGUGGGACACAGCAGAAGCGUUCACGUCGCAGCCCCUGUCAGAUUCUGGUGAAUCUGCGAAAUCUGCUGUAUAUCUC [G7U C11A U66A] | 0.08
UAACAGUGGGCCACAGCAGGAGCGUUCACGUCGCAGCCCCUGUCAGAUUCUGGUGAACCUGCGAAUCCUGCUGUAUAUCUC [G7U A20G U58C U67C] | 0.13
UAACAGUGGGCCACGGCAGAAGCGCUCACGUCGCAGCCCCUGUCAGAUUCUGGUGAGUCUGCGAAUUCUGCUGUAUAUCUC [G7U A15G U25C A57G] | 0.69
UAACAGUGGGCCACAGCAGAAGCGUUCGCGUCGCAGCCCCUGUCAGAUUCUGGUGAAUCUGCGAAUUCUGCUGUAUACCUC [G7U A28G U78C] | 0.08
UAACAGUGGGCCAUAGCAGGAGCGUUCACGUCGCGGCCCCUGUCAGAUUCUGGUGGAUCUGCGAAUUCUGCUGUAUAUCUC [G7U C14U A20G A35G A56G] | 0.24

Variant | self-cleavage
UAACAGUGGGCCACAGCAGAGGCGUUCACGUCGCAGCCCCUGUCUGAUUCUAGUGAAUCUGCGAAUUCUGCUGUAAAUCUC [G7U A21G A45U G52A U76A] | 0.35
UAACAGUGGACCACUGCGCAAGUGCUCACGUCGCAGCCCCUGUCAGAUUCUGGUGAAUCUGCGAAUUCUGCUGUAUAUCUC [G7U G10A A15U A18G G19C C23U U25C] | 0.23
UAACAGUGGGCCGCAGCAGAGGCGCUCACGUCGCGGCCCCUGUCAGAUUCUGGUGAAUCUGCGAAUUCUGCUGUAUAUCUC [G7U A13G A21G U25C A35G] | 0.03
UAACAGUGGGCCUCAGCAGAAGCGUUCACGUCGCAGCCCCUGUCAGAUUCUGGUGGAUCUGCGAAUUCUGCUGUAUAUCUC [G7U A13U A56G] | 0.18
UAACAGUGGGGCACAGCAGAAGCGUUCACGUCGCAGCCCCCGUCAGAUUCUGGUGAAUCUGCGAAUUCUGCGGUAUAUCUC [G7U C11G U41C U72G] | 0.05
UAACAGUAGGCCACAGCAGAAGCGUUCGCGUCGCAGCCCCUGUCUGAUUCUGGUGAACCUGCGAAUUCUGCUGUAUAUCUC [G7U G8A A28G A45U U58C] | 0.06
UAACAGUGGGGCACAGCAGAAGCGUUCACGUCGCAGCCCCCGUCAGAUACUGGUGAACCUGCGAAUUCUGCUGUAUAUCUC [G7U C11G U41C U49A U58C] | 0.05
UAACAGUGGGCCACUGCAGAAGCGUUCACGUCGCAGCCCCUGUCAGAUUCUGGUCAAUCUGCGAAUUCUGCCGUAUAUCUC [G7U A15U G55C U72C] | 0.22
UAACAGUGGGCCACAGCAGGAGCGUUCACCUCGCAGCCCCUGUCAGAUUCUGGUGAAUCUGCGAAUUCUGCUGUAUAUCUC [G7U A20G G30C] | 0.39
UAACAGUGGGCCACAGCUGGAGCGUUCACGUCGCAGCCCCUGUCAGACUCUGGCGAAUCUGCGGAUUCUGCUGUUUAUCUC [G7U A18U A20G U48C U54C A64G A75U] | 0.05
UAACAGUGGGCCACAGCAGAAGCGUUCGCGUCGCAGCCCCUGUCAGAUUCUGGUGAACCUGCGAAUUCUGCUGUAUAUCUC [G7U A28G U58C] | 0.39
UAACAGUGGGCCACAGCAGAAGUGUUCACUUCGCAGCCCCUGUCAGAUUCUGGUGGAUCUGCGAAUUCUGCUGUAUAUCUC [G7U C23U G30U A56G] | 0.1
UAACAGUGGGCCACAGCGGAAGCGUUCACGUCGCAGCCCCUGUCAGAUCCUGGCGAAUCUGCGAAUUCUGCUGUAUAUCUC [G7U A18G U49C U54C] | 0.07
UAACAGUGGGCCACAGCAGAGGCGUUCACGUCGCGGCCCCUGUCGGAUUCUGGUGAAUCCGCGAGUUCUGCUGCAUAUCUC [G7U A21G A35G A45G U60C A65G U74C] | 0.04
UAACAGUGGGCCGCAGGAGAAGCGUUCACGUCGCAGCCCCCGUCAGAUUCUGGUGAAUCUGCGAAUUCUGCUGUAUAUCUC [G7U A13G C17G U41C] | 0.6
UAACAGUGGGCCACAGCAGAAGCGUUCACGUCGCAGCCCCUGUCAGAUUCUGGUGAAUAUGCGAAUUCUGCUGUAUAUCCC [G7U C59A U80C] | 0.2
UAACAGUGGGCCACAGUAGAAGCGUUCACGUCGCAGCCCCUGACAGACUCUGGUGAAUCUGCGGAUUCUGCUGUAUAUCUC [G7U C17U U43A U48C A64G] | 0.06
